Among all 310,000 compounds or so, about 2,200 (0.71%) showed an effect of 50% or more. Effects have a minus sign here. The list shows a part of the results.
These molecules were tested against human ether-à-go-go-related gene (hERG) potassium channel (human, UniProt Q12809) (assay: primary screen, population patch clamp on CHO cells stably expressing hERG).
Chain of human ether-à-go-go-related gene (hERG) potassium channel (Q12809 whole entry, looked up): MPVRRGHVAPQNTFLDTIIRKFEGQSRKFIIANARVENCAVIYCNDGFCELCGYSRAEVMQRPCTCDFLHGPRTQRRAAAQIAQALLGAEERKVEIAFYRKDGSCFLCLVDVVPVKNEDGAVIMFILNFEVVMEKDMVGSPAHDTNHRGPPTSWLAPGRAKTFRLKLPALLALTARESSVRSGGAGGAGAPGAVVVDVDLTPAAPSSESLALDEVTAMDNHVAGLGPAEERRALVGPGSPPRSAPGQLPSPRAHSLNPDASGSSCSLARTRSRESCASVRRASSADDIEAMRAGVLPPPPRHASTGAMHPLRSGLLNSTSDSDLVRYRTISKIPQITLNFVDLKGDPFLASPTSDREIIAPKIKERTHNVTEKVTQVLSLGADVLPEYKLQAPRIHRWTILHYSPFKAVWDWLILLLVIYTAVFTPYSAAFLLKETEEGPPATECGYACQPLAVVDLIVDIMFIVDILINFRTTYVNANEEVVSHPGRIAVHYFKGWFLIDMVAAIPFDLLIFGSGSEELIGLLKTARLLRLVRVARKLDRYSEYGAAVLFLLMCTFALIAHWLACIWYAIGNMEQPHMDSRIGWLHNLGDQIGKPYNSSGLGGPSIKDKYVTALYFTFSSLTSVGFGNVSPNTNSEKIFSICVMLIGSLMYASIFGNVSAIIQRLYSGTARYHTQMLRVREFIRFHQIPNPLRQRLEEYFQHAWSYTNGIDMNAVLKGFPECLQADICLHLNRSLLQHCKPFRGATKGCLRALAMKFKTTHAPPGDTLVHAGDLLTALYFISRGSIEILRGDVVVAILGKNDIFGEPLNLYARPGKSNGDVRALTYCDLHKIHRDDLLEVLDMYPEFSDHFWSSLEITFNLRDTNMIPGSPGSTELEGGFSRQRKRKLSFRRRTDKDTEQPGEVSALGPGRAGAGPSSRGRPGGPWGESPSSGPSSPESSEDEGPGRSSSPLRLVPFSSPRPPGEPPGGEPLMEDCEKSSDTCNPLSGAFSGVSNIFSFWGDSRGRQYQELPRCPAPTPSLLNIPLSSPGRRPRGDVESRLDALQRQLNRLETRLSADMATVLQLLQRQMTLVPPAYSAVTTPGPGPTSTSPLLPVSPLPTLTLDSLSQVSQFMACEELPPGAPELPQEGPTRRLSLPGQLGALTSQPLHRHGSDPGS

Structure (SMILES) | hERG current change (%, negative = inhibition) at 1uM [%]
O=C(Nc1ccccc1N1CCOCC1)c1ccncc1 | -3.34
CCC(=O)NC(c1cccs1)c1ccc2cccnc2c1O (stereo not shown) | 10.8
Cc1cccc(CS(=O)(=O)Cc2ccc(C(=O)NCc3ccccc3)o2)c1 | 14.3
COc1ccccc1NCCC(=O)OCC(=O)NC1CCCCCC1 | 9.91
O=C(O)c1ccc(-n2cccc2/C=N\NC(=O)c2cc3cc(Br)ccc3o2)cc1 | 8.42
C=CCn1c(SCc2c(C)noc2C)nc2sc3c(c2c1=O)CCCC3 | -8.57
COc1ccc(CCn2c(=N)c(C(=O)NCC3CCCO3)cc3c(=O)n4cccc(C)c4nc32)cc1 (stereo not shown) | -88.1
COc1cccc(/C=N/NC(=O)c2ccc(N(C)S(=O)(=O)c3ccccc3)cc2)c1OC | 5.91
COc1cc(-c2nc3ccccn3c2NCC2CCCO2)ccc1O (stereo not shown) | 2.7
CN(C)c1ccc(-n2cccc2)cc1 | 9.3
O=C(CC1C(=O)NCCN1Cc1ccccc1C(F)(F)F)NC1CCCC1 (stereo not shown) | 20.5
CC(C)c1ccc(/C=C/C(=O)NCCCN2CCOCC2)cc1 | 3.8
CC(C)C(=O)N=C1SC2CS(=O)(=O)CC2N1Cc1ccc(Cl)cc1 (stereo not shown) | 11.5
O=C(CCc1ccc(S(=O)(=O)N2CCCCC2)cc1)c1nnc(-c2ccccc2)o1 | 0.567
CCOCCCNC(=O)c1c(C)[nH]c(C(=O)OCC)c1C | -3.15
O=c1[nH]c(SCc2nc3ccccc3n2Cc2ccccc2)nc2ccccc12 | 8.95
COc1ccccc1NC(=O)CN1CCN(c2ccccc2F)CC1 | 6.58
COCCN(CC(=O)NCC1CCCO1)C(=O)CCC(=O)Nc1cc(C)ccn1 (stereo not shown) | 7.71
Cc1c(OCC(=O)NC(Cc2c[nH]c3ccc(O)cc23)C(=O)O)ccc2c3c(c(=O)oc12)CCC3 (stereo not shown) | 8.79
COc1cccc(C=Nc2cccnc2)c1O | 3.4

Structure (SMILES) | hERG current change (%, negative = inhibition) at 1uM [%]
CC(C)CCc1noc(CN(C)CCC2CCOCC2)n1 | 11.5
C=CCNC(=O)Nc1ccc(F)c(Cl)c1 | 15.9
COCCCNC(=O)/C(C#N)=C/c1ccc(OCC(=O)O)c(OC)c1 | 14.1
CN1C2CCC1/C(=C\c1ccc(F)cc1)C(=O)/C2=C/c1ccc(F)cc1 | 1.81
COc1cc(NC(=O)COc2cc3oc(=O)cc(C)c3cc2Cl)cc(OC)c1OC | 18.6
O=C(NCCS(=O)c1ccc(Cl)cc1)c1cccc(Cl)c1 (stereo not shown) | 5.32
N/C(=N\OC(=O)c1cccc(Br)c1)c1ccccn1 | 17
CN(C(=O)c1cccc(C#N)c1)c1nnc(-c2ccccn2)s1 | 10.6
O=C(N/N=C/c1cccnc1)c1ccc(NC(=O)C(c2ccccc2)c2ccccc2)cc1 | -4.74
O=C(CCNC(=O)c1ccccc1Cl)NCC1CCCO1 (stereo not shown) | -9.04
Cc1cc(F)ccc1S(=O)(=O)NCC(c1cccnc1)N1CCc2ccccc21 (stereo not shown) | 16.7
O=C1CCC([N+](=O)[O-])C(c2cc3c(cc2Cl)OCO3)N1 (stereo not shown) | 8.38
COc1ccc(-c2nn(CCC#N)cc2C(=O)O)cc1 | 15.4
CCNS(=O)(=O)c1ccc(CCC(=O)NCc2ccc(C)cc2)cc1 | -0.294
NC(=O)N/N=C/c1c(O)ccc2oc3c(c12)CCCC3 | 9.96
N#C/C(=C\c1ccccc1)C(=O)N(c1ccccn1)C1CCCCC1 | 2.24
CCOc1ccc(-n2nnnc2SCC(=O)NNC(=O)c2ccco2)cc1 | 13.2
O=C1CSC(c2ccccc2F)N1c1cc(Cl)ccc1O (stereo not shown) | 2.62
CCC(C)c1ccccc1NC(=O)COC(=O)C1=COCCO1 (stereo not shown) | 4.52
S=c1[nH]nc(-c2ccccc2Cl)n1CC1CCCO1 (stereo not shown) | -6.01

Structure (SMILES) | hERG current change (%, negative = inhibition) at 1uM [%]
C=C1CCN([C@H](C(=O)O)C(C)C)S(=O)(=O)c2ccccc21 | 9.92
Cc1ccc(C)c(NC(=O)c2ccc(OC(=O)c3ccco3)cc2)c1 | 0.693
CCC(C)NC(=O)C1CCCN(c2nc(C)cc(OC)n2)C1 (stereo not shown) | 15.8
O=C(COC(=O)/C=C/c1ccc(C(F)(F)F)cc1)NCc1ccco1 | 9.44
CCC(CC)NC(=O)c1cc(OC)c(OC)c(OC)c1 | 7.11
Br.CCCCCCCCCCn1ccc(=N)cc1 | -37.1
C/C(=N\NC(=O)c1cccnc1)c1cc2ccccc2o1 | 1.78
COc1cccc(/C=C/C(=O)NNC(=O)c2ccncc2)c1 | -8.5
CCOc1cc(C2CC(=O)NC3=C2C(=O)C(C(=O)OC)C(C)C3)cc(Br)c1O (stereo not shown) | 7.34
O=C(Nc1ccc(O)cc1)c1ccc2c(c1)C(=O)N(Cc1ccco1)C2=O | -9.52
COCC(C)n1c(C)cc(C(=O)COC(=O)c2nc3nc(C)cc(C)n3n2)c1C (stereo not shown) | 11.6
Cc1ccccc1NC(=O)c1ccccc1NC(=O)c1ccccc1F | 12.7
N#CCCNS(=O)(=O)c1ccc(C(=O)OCCCOC(=O)c2ccc(S(=O)(=O)NCCC#N)cc2)cc1 | 12.9
COc1cccc(CNC(=O)C2=Cc3cccc(OC)c3OC2)c1 | 14.6
Fc1ccc(-c2nnn3c2nc(NCc2ccccc2)c2ccccc23)cc1 | 14.1
O=C(Oc1ccccc1C(=S)N1CCOCC1)c1ccc([N+](=O)[O-])cc1[N+](=O)[O-] | 3.85
O=c1oc2ccc(NS(=O)(=O)c3cccc4cccnc34)cc2s1 | 17.2
CCOC(=O)C1CCCCN1Cc1ccc(F)cc1 (stereo not shown) | 12.3

Source: paper PMC4336329 (PLoS ONE, 2015)
